Measured values taken from PubChem BioAssay AID1347073 (National Center for Advancing Translational Sciences (NCATS), 2019).
Screen size: about 45,000 compounds; about 200 (0.44%) were called active. Another 7% or so got no clear call; they are omitted. Calls follow the shape of the dose curve; as a rule, active = well fitted activation curve with a large enough effect; inconclusive = small, poorly fitted or top-dose-only effect; inactive = no such curve, though single readings can be large or run the other way. The list shows a part of the results.

assay: qHTS of TDP-43 Inhibitors: NCGC Sytravon Library Screen; conditions: yeast TDP-43 toxicity rescue, BacTiter-Glo growth, 24 h; series mostly up to 46.1 µM; growth rescue (activation): at the top concentration; also: 0% is about no effect; nearly all actives have a fitted effect of over 55% in size
How it was run: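 TDP-43-expressing yeast, pregrown in raffinose, seeded at OD600 0.02 in galactose medium with compound for 24 hr at 30 deg C. Growth read by BacTiter-Glo luminescence, so rescue of toxicity appears as activation.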

| SMILES | growth rescue (activation) |
| --- | --- |
| CC(C)c1ccccc1NS(=O)(=O)N(C)C | inactive: 0.795% |
| Cc1ccccc1C1c2[nH]c3ccccc3c2CCN1CCCn1cccn1 (stereo not drawn) | inactive: -16.5% |
| O=C(CNS(=O)(=O)c1cccs1)NCc1ccc(F)cc1 | inactive: 11.1% |
| CC1=NNC(=O)C1CCC(=O)N/N=C\c1cccc(Cl)c1 (stereo not drawn) | inactive: 11.2% |
| COc1ccc(C(=O)N2c3ccc(C)cc3C(C)(c3ccccc3)CC2(C)C)cc1 (stereo not drawn) | inactive: 5.34% |
| C=CCn1c(SCC(=O)Nc2nc3ccccc3s2)nc(O)c(CC)c1=O | inactive: -4.91% |
| Cc1c(CC(=O)NCCCC(=O)O)c(=O)oc2cc3occ(-c4ccccc4)c3cc12 | inactive: -14.5% |
| C=CCNC(=O)c1cc(Cl)ccc1[N+](=O)[O-] | inactive: 21.3% |
| CC(C)c1ccc(OCC(O)CN2CCN(c3ccc(F)cc3)CC2)cc1 (stereo not drawn) | inactive: 12.1% |
| Cc1ccc(-c2noc(CN(C)C(=O)c3ccoc3C)n2)cc1 | inactive: 18.2% |
| O=C(Nc1cc(Br)ccc1O)c1cnn2c(C(F)F)cc(C3CC3)nc12 | inactive: 15% |
| COC(=O)N/N=C/c1cc(C)n(-c2ccc(F)cc2)c1C | inactive: -4.78% |
| O=[N+]([O-])c1ccc(N2CCOCC2)c(S(=O)(=O)N2CCOCC2)c1 | inactive: -7.31% |
| CC(C)c1ccc(C(=O)NC(=S)Nc2ccc3[nH]c(=O)[nH]c3c2)cc1 | inactive: 8.17% |
| CCc1cccc2c(C(=O)C(NC(C)CC)c3ccccc3)c[nH]c12 (stereo not drawn) | inactive: 14.8% |
| O=C(COC(=O)c1ccc(F)c(S(=O)(=O)N2CCCCC2)c1)NCc1ccc(F)cc1 | inactive: 15.5% |
| CCN(CC)C(=O)CSc1nc(-c2ccccc2)ccc1C#N | inactive: 7.15% |
| Cc1ccc(S(=O)(=O)NCC(=O)OCc2nnc(-c3ccccc3)o2)cc1C | inactive: 12.8% |
| CCOC(=O)c1cnc(N2CCN(C(=O)OCC)CC2)[nH]c1=O | inactive: 0.745% |
| CCCN1C(=O)/C(=C/c2nc3ccccc3c(=O)[nH]2)c2cc(C)ccc21 | inactive: -3.85% |
| O=C(NC(=S)Nc1ccccn1)c1cccc([N+](=O)[O-])c1 | inactive: 13.9% |
| Cc1cccc2sc(N(CCCN(C)C)C(=O)COc3ccccc3)nc12 | inactive: 0.605% |

| SMILES | growth rescue (activation) |
| --- | --- |
| Cc1nc(NC(=O)/C=C/c2ccccc2)sc1C(=O)Nc1cccc(Cl)c1 | inactive: 4.07% |
| COc1cccc(CNC(=O)N2CCN(S(=O)(=O)c3ccc(Cl)cc3)CC2)c1 | inactive: 2.47% |
| CC(C)CC(=O)Nc1ccc(-c2nnn(CC(=O)NCc3ccco3)n2)cc1 | inactive: -7.27% |
| Cc1cc(NC(=O)CCC(=O)N(c2ccc(F)cc2)C(C(=O)NC2CCCC2)c2ccncc2)no1 (stereo not drawn) | inactive: 23.3% |
| CC(C)CCNC(=O)c1cc([N+](=O)[O-])ccc1N1CCOCC1 | inactive: -19.7% |
| CCc1ccccc1NC(=O)c1cc(-c2cccs2)on1 | inactive: 11.8% |
| COc1ccc(N2CCN(C(C)C(=O)N(C)Cc3ccccc3)CC2)cc1 (stereo not drawn) | inactive: -11.8% |
| COc1ccc(N2C(=O)CCC(C(=O)N3CCN(c4ccccn4)CC3)C2c2ccc(F)cc2)cc1 (stereo not drawn) | inactive: -0.397% |
| CCOc1ccc(C(=O)OC(C)C(=O)N2CCN(Cc3ccccc3)CC2)cc1 (stereo not drawn) | inactive: -2.26% |
| COCc1[nH][nH]c(=O)c1C=Nc1ccc(F)cc1F | inactive: 22.1% |
| O=C(NCCCNC(=O)c1cc(Cl)ccc1Cl)c1ccco1 | inactive: -30% |
| COc1ccc(CN(CC(=O)NCc2ccccc2)C(=O)CCC(=O)Nc2ccccn2)cc1 | inactive: -8.84% |
| O=C(c1ccc(OC2CCN(Cc3ccccn3)CC2)cc1)N1CCCCCC1 | inactive: -2.68% |
| CCCCNC(=O)C1(C)CCCCN1C(=O)c1ccc2c(c1)CCO2 (stereo not drawn) | inactive: 3.67% |
| CN(C)S(=O)(=O)N1CCCC(C(=O)c2ccc(-c3ccccc3)c(F)c2)C1 (stereo not drawn) | inactive: 11.1% |
| COC(=O)c1ccc(NC(=O)C(=O)N2CCN(C(=S)Nc3cccc(C)c3C)CC2)cc1 | inactive: 6.4% |
| CC(C)(C)CC(=O)NCCCN1CCOCC1 | inactive: 8.52% |
| COCCNC(=O)Cn1c(=O)n(CCCCCC(=O)Nc2ccccc2)c(=O)c2sccc21 | inactive: -3.32% |
| CCCCOC(=O)c1ccc(NC(=O)C(=O)CC(=O)c2ccc(OC)cc2)cc1 | inactive: 9.25% |
| O=C(COC(=O)c1ccc2ncsc2c1)Nc1ncc(Cl)cc1Cl | inactive: 11.1% |
| O=C(Nc1ccccc1)NC(Cc1ccc(O)cc1)C(=O)O (stereo not drawn) | inactive: -7.78% |
| O=C(CSc1nnnn1-c1cccnc1)Nc1ccc(F)cc1F | inactive: -8.67% |

| SMILES | growth rescue (activation) |
| --- | --- |
| Cc1cc(C)nc(NS(=O)(=O)c2ccc(NC(=O)C3(c4ccc([N+](=O)[O-])cc4)CCCC3)cc2)n1 | inactive: 18.5% |
| O=[N+]([O-])c1cc(Cl)ccc1N1CCCC1 | inactive: -6.56% |
| Cc1cc(C)cc(-n2c(SCC(=O)NCc3ccc4c(c3)OCO4)nc3ccccc3c2=O)c1 | inactive: 22.5% |
| CCOc1ccc(C(=O)/C=C/Nc2ccc(S(=O)(=O)Nc3cc(C)nc(C)n3)cc2)cc1 | inactive: 8.23% |
| COc1cccc2cc(C(=O)NCC3CCCO3)c(=O)oc12 (stereo not drawn) | inactive: 24.3% |
| CN(C)S(=O)(=O)c1ccc(C(=O)NCCc2ccco2)cc1 | inactive: -23.2% |
| O=C(c1ccccc1[N+](=O)[O-])N1CCN(Cc2ccc3c(c2)OCO3)CC1 | inactive: 16.3% |
| C=CCNC(=S)NNC(=O)c1csc(C)c1C | inactive: -4.27% |
| C=CCNc1nc(Nc2ccccc2F)nc(OCC)n1 | inactive: 20.1% |
| N#Cc1ccc(OCC(=O)NC2CCCCCC2)cc1 | inactive: 16.9% |
| Cc1onc(-c2ccccc2)c1C(=O)NCCSCc1ccco1 | inactive: 37.7% |
| NS(=O)(=O)c1ccc(CCNC(=O)CSc2ccc3ccccc3c2)cc1 | inactive: 2.83% |
| Cc1c(NC(=O)c2cnc(Cl)c(Cl)c2)c(=O)n(-c2ccccc2)n1C | inactive: 7.28% |
| CC1(C(=O)N2CCN(c3ccccc3)CC2)CC1(Cl)Cl (stereo not drawn) | inactive: 36.1% |
| CCNC(=O)COC(=O)c1cc(C)n(-c2ccccc2)c1C | inactive: 8.73% |
| CC(=O)C1=C(O)C(=O)N(C2CCCCC2)C1c1ccccc1 (stereo not drawn) | inactive: -38.3% |
| Cc1cc(C(=O)CSc2nnc(-c3cccnc3)n2-c2ccccc2F)c(C)n1CC1CCCO1 (stereo not drawn) | inactive: 4.07% |
| O=C(NC(=O)c1c(F)cccc1F)Nc1ccccc1SC(F)F | inactive: -7.23% |
| CC(NC(=O)c1ccc(F)cc1Cl)C1CC2CCC1C2 (stereo not drawn) | inactive: 6.34% |
| NNC(=O)c1sccc1OCc1cccc(C(F)(F)F)c1 | inactive: 12.3% |
| O=C(O)c1cccc(N2C(=O)c3cc4cccc(Br)c4cc3C2=O)c1 | inactive: 8.73% |
| Cc1ccc(Oc2ccc(NS(=O)(=O)c3cccc(C(=O)O)c3)cc2)cc1 | inactive: -4.48% |

| SMILES | growth rescue (activation) |
| --- | --- |
| Cc1ccc(NC(=O)N2C3CCCC2CC(NC(=O)C2CC2)C3)cc1 (stereo not drawn) | inactive: 15.6% |
| CC1CCN(C(=O)COC(=O)CCC(=O)c2ccc(F)cc2)CC1 | inactive: -2.51% |
| COc1ccc(C(=O)NC2CC2)cc1OC1CCN(Cc2ccccc2O)CC1 | inactive: 2.7% |
| CCN(CC)S(=O)(=O)c1cc(C(=O)OCC(=O)Nc2cccc(C)c2C)ccc1F | inactive: 1.17% |
| COc1ccc(CNCc2ccc(OC)c3ccccc23)cc1 | inactive: -1.01% |
| CCCCN(C(=O)CNC(=O)c1cccs1)C(C(=O)NC1CCCC1)c1ccncc1 (stereo not drawn) | inactive: 7.92% |
| C=CCn1cc(C(=O)N2CCN(CC)CC2)c(=O)c2cc(S(=O)(=O)N(CC)CC)ccc21 | inactive: 7.52% |
| O=C(O)c1cccc(S(=O)(=O)Nc2ccccc2Cc2ccccc2)c1 | inactive: -2.49% |
| COc1ccc2[nH]c(C(=O)NCc3ccccc3)c(C)c2c1 | inactive: 11.9% |
| Cc1ccccc1NC(=S)N=Nc1c(O)n(C)c2ccc(S(=O)(=O)N3CCOCC3)cc12 | inactive: 21.3% |
| Cc1ccc(/C=N/n2c(-c3ccc(Cl)cc3)n[nH]c2=S)s1 | inactive: 24.9% |
| COC(=O)C(Cc1c[nH]c2ccccc12)NC(=O)CNC(C)=O (stereo not drawn) | inactive: 16.6% |
| O=C(Nc1nc(-c2ccc(-c3ccccc3)cc2)cs1)c1cnccn1 | inactive: 20.4% |
| OC(COC(c1ccc(Cl)cc1)c1ccc(Cl)cc1)CN1CCc2ccccc2C1 (stereo not drawn) | inactive: 11.2% |
| COc1ccc(NC(=O)COC(=O)C23CC4CC(CC(NC(C)=O)(C4)C2)C3)cc1S(=O)(=O)N1CCOCC1 | inactive: -0.559% |
| Cc1cccc(N2CCN(c3c4c(nc5nncn35)CCC4)CC2)c1C | inactive: 5.02% |
| Cc1csc(=O)n1CCC(=O)OCc1nnc(-c2ccccc2Cl)o1 | inactive: 37.2% |
| COc1ccccc1NC(=O)Nc1nnc(C(C)C)s1 | inactive: 10% |
| O=C(CNC(=O)c1nn(Cc2ccccc2)c(=O)c2ccccc12)Nc1ccc(F)c(F)c1F | inactive: 2.24% |
| O=[N+]([O-])c1cc(S(=O)(=O)N2CCCC2)ccc1N/N=C1/CCCc2ccccc21 | inactive: 2.71% |
| Nc1nc(SCC(=O)NN(c2ccccc2)c2ccccc2)n[nH]1 | inactive: -8.42% |
| Cc1ccc(Cl)cc1NC(=O)CN1CCN(S(=O)(=O)N2CCC(C)CC2)CC1 | inactive: 11.2% |

| SMILES | growth rescue (activation) |
| --- | --- |
| NC(CSCc1ccccc1Cl)C(=O)O (stereo not drawn) | inactive: 1.57% |
| COCCNC(=O)C(c1ccc(F)cc1)N(CCOC)C(=O)CCC(=O)Nc1ccccn1 (stereo not drawn) | inactive: 9.83% |
| CN(C(=O)c1ccc(NC(=O)Cc2ccccc2)cc1)c1ccccc1 | inactive: 12.2% |
| COC(=O)C1CCCCN1C(=O)c1ccc(OC2CCN(C(C)=O)CC2)c(OC)c1 (stereo not drawn) | inactive: 10.5% |
| O=C(O)Cc1ccc(S(=O)(=O)Nc2ccccc2C(=O)O)cc1 | inactive: -15.7% |
| Clc1ccc(-c2cccc3nccn23)cc1 | inactive: 13.1% |
| COc1cccc(N(CC(=O)NCCSc2ccccn2)S(=O)(=O)c2ccccc2)c1 | inactive: -19.5% |
| Nc1nc(-c2ccccc2)cn1/N=C/c1ccccc1 | inactive: 12.7% |
| COc1ccccc1OC(=O)CCc1nc2ccccc2s1 | inactive: 14.9% |
| CC(C)(O)C#Cc1ccc(C(=O)NCCC(=O)O)s1 | inactive: -0.0938% |
| O=C(COC(=O)/C=C/c1cccs1)NC(=O)Cc1ccccc1 | inactive: -8.25% |
| C/C(CC(=O)Nc1cccc2c1CCCC2)=N\NC(=O)COc1ccccc1 | inactive: 6.96% |
| COc1cc(OC)c2cc(C(=O)N[C@@H](Cc3ccccc3)C(=O)O)n(C)c2c1 | inactive: -0.573% |
| COc1ccc(S(=O)(=O)N(CC(=O)NCc2cccnc2)c2ccc(C)cc2)cc1OC | inactive: 9.95% |
| Cc1ccc(N(CC(=O)Nc2c(C)n(C)n(-c3ccccc3)c2=O)S(C)(=O)=O)c(C)c1 | inactive: 6.31% |
| O=C(O)CCCC(=O)Nc1ccccc1C(=O)N1CCOCC1 | inactive: -34.6% |
| N=C(N)c1ccc(Cl)cc1 | inactive: -1.78% |
| CCC(C)NCCOc1cccc(Br)c1 (stereo not drawn) | inactive: -6.96% |
| CCCc1nnc(NC(=O)CNc2ccc(F)cc2)s1 | inactive: 30.8% |
| O=C(CN(C(=O)c1csnn1)c1ccc(F)cc1)NCCc1ccccc1 | inactive: 3.83% |
